In the antibiotic and cytotoxicity screens of Wong et al. (2023):
The other results are listed elsewhere or left out.

Columns and labels:
HSkMC = human skeletal muscle cells; assay: cytotoxicity call (relative viability < 0.9); conditions: 10 µM
S. aureus RN4220 = assay: growth inhibition call (relative growth <= 0.2); conditions: 50 µM

| SMILES | cytotoxicity call (HSkMC) | growth inhibition call (S. aureus RN4220) |
| --- | --- | --- |
| O=C(Nc1ccc(C(F)(F)F)cc1)Nc1ccc2c(c1)[C@@H]1C[C@H](CC(=O)N3CCc4ccccc4C3)O[C@H](CO)[C@@H]1O2 | inactive | inactive |
| C[C@H]1CN([C@@H](C)CO)C(=O)c2cccc(NS(=O)(=O)c3ccc(F)cc3)c2O[C@H]1CN(C)S(=O)(=O)c1ccc(F)cc1 | inactive | inactive |
| COc1ccc(NC(=O)N(C)C[C@H]2OCCCC[C@H](C)Oc3ccc(NS(=O)(=O)c4ccc(OC)cc4)cc3C(=O)N([C@@H](C)CO)C[C@H]2C)cc1 | inactive | inactive |
| COc1cc(F)c(C(C)C)cc1-c1ccc(C(F)(F)F)cc1CN1C(=O)O[C@H](c2cc(C(F)(F)F)cc(C(F)(F)F)c2)[C@@H]1C | inactive | inactive |
| Cc1noc(C)c1NC(=O)Nc1ccc2c(c1)C(=O)N([C@@H](C)CO)C[C@@H](C)[C@@H](CN(C)S(C)(=O)=O)O2 | inactive | inactive |
| Cc1noc(C)c1S(=O)(=O)N(C)C[C@H]1Oc2c(NS(=O)(=O)c3cn(C)cn3)cccc2C(=O)N([C@@H](C)CO)C[C@H]1C | inactive | inactive |
| C=CCN1C(=O)[C@@]2(O[C@@H](CCO)[C@H]([Si](C)(C)F)[C@H]2C)c2cc(N3C(=O)c4cccc5cccc3c45)ccc21 | inactive | inactive |
| C[C@@H]1CCCCO[C@@H](CN(C)Cc2ccncc2)[C@@H](C)CN([C@@H](C)CO)C(=O)c2cc(NC(=O)Nc3ccc(F)cc3)ccc2O1 | inactive | inactive |
| C[C@@H]1CCCCO[C@H](CN(C)C(=O)Nc2ccc(C(F)(F)F)cc2)[C@@H](C)CN([C@@H](C)CO)C(=O)c2cc(NS(=O)(=O)c3ccc(Cl)cc3)ccc2O1 | active | inactive |
| C[C@@H]1[C@@H]([Si](C)(C)F)[C@H](CCO)O[C@@]12C(=O)N(Cc1cccc(N3C(=O)c4cccc5cccc3c45)c1)c1ccccc12 | inactive | inactive |
| Cc1noc(C)c1NC(=O)Nc1ccc2c(c1)C(=O)N([C@@H](C)CO)C[C@H](C)[C@@H](CN(C)C(=O)NC(C)C)O2 | inactive | inactive |
| COc1ccc(NC(=O)Nc2ccc3c(c2)C(=O)N([C@@H](C)CO)C[C@@H](C)[C@H](CN(C)C(=O)Cc2ccccc2)OCCCC[C@@H](C)O3)cc1 | inactive | inactive |
| COc1ccc(CN(C)C[C@@H]2OCCCC[C@@H](C)Oc3ccc(NS(=O)(=O)c4ccc(Cl)cc4)cc3C(=O)N([C@H](C)CO)C[C@H]2C)cc1 | inactive | inactive |
| CC1(C)[C@@H](O[C@H]2O[C@H](C(=O)O)[C@@H](O)[C@H](O)[C@H]2O[C@@H]2O[C@H](C(=O)O)[C@@H](O)[C@H](O)[C@H]2O)CC[C@]2(C)[C@H]3C(=O)C=C4[C@@H]5C[C@@](C)(C(=O)O)CC[C@]5(C)CC[C@@]4(C)[C@]3(C)CC[C@@H]12 | inactive | inactive |
| C[C@H](CO)N1C[C@H](C)[C@H](CN(C)S(=O)(=O)c2cccs2)Oc2ncc(-c3ccc(F)cc3)cc2C1=O | inactive | inactive |
| Cc1ccc(=O)n(-c2ccccc2)c1 | inactive | inactive |
| Cc1cc(O)cc2c1O[C@](C)(CCC[C@H](C)CCC[C@H](C)CCCC(C)C)CC2 | inactive | inactive |
| O=C(C[C@H]1C=C[C@@H](NC(=O)C2CC2)[C@@H](CO)O1)NCCCN1CCOCC1 | inactive | inactive |
| COc1ccc(CN(C)C[C@H]2OCCCC[C@H](C)Oc3ccc(NS(=O)(=O)c4ccccc4)cc3C(=O)N([C@H](C)CO)C[C@H]2C)cc1 | inactive | inactive |
| Cc1ccc(C(=O)N2c3ccccc3Sc3ccccc32)cc1 | inactive | inactive |
| C[C@@H](Oc1ccccc1)c1ccn[nH]1 | inactive | inactive |
| CN(C)CCN1CCNCC1 | inactive | inactive |
| O=C(O)[C@H]1CCCC[C@@H]1C(=O)N1CCOCC1 | inactive | inactive |
| C[C@H]1CCCCO[C@H](CN(C)S(=O)(=O)c2cn(C)cn2)[C@@H](C)CN([C@@H](C)CO)C(=O)c2cc(NS(C)(=O)=O)ccc2O1 | inactive | inactive |
| C[C@H](CO)N1C[C@H](C)[C@H](CN(C)C(=O)Nc2ccc(C(F)(F)F)cc2)OCCCC[C@H](C)Oc2ccc(NC(=O)CCC(F)(F)F)cc2C1=O | inactive | inactive |
| Cc1ccc(S(=O)(=O)N(C)C[C@@H]2OCCCC[C@@H](C)Oc3ccc(NC(=O)NC4CCCCC4)cc3C(=O)N([C@H](C)CO)C[C@@H]2C)cc1 | inactive | inactive |
| C[C@H]1CCCCO[C@@H](CN(C)C(=O)C2CCCCC2)[C@@H](C)CN([C@@H](C)CO)C(=O)c2cc(NC(=O)Nc3ccccc3)ccc2O1 | inactive | inactive |
| C[C@@H]1CCCCO[C@H](CN(C)Cc2ccc(C(=O)O)cc2)[C@H](C)CN([C@H](C)CO)C(=O)c2cc(NC(=O)Nc3cccc4ccccc34)ccc2O1 | inactive | inactive |

| SMILES | cytotoxicity call (HSkMC) | growth inhibition call (S. aureus RN4220) |
| --- | --- | --- |
| C[C@@H]1CN([C@H](C)CO)C(=O)c2cccc(NS(C)(=O)=O)c2O[C@@H]1CN(C)S(=O)(=O)c1cccs1 | inactive | inactive |
| O=C(C[C@@H]1C[C@H]2c3cc(NC(=O)c4ccc5c(c4)OCO5)ccc3O[C@H]2[C@H](CO)O1)NCCN1CCCCC1 | inactive | inactive |
| COc1ccc(-c2cc(=O)c3c(O)cc(OC)cc3o2)cc1 | inactive | inactive |
| Cc1noc(C)c1S(=O)(=O)N(C)C[C@@H]1OCCCC[C@@H](C)Oc2ccc(NC(=O)Nc3ccccc3)cc2C(=O)N([C@H](C)CO)C[C@@H]1C | inactive | inactive |
| C[C@@H]1CN([C@@H](C)CO)C(=O)c2cc(NC(=O)Nc3ccccc3)ccc2O[C@H]1CN(C)Cc1ccc(C(F)(F)F)cc1 | active | inactive |
| COc1ccc(NC(=O)N(C)C[C@@H]2OCCCC[C@H](C)Oc3ccc(NS(=O)(=O)c4ccc(Cl)cc4)cc3C(=O)N([C@H](C)CO)C[C@@H]2C)cc1 | inactive | inactive |
| C[C@H]1CN([C@@H](C)CO)C(=O)c2cccc(NC(=O)C3CC3)c2O[C@H]1CN(C)S(=O)(=O)c1ccc(F)cc1 | inactive | inactive |
| Cc1ccc(S(=O)(=O)N(C)C[C@@H]2Oc3c(NC(=O)c4cnccn4)cccc3C(=O)N([C@@H](C)CO)C[C@@H]2C)cc1 | inactive | inactive |
| C[C@H]1CN([C@@H](C)CO)C(=O)CCCn2nncc2CO[C@@H]1CN(C)C(=O)CCCN(C)C | inactive | inactive |
| O=C(C[C@H]1CC[C@@H]2[C@H](COC[C@H](O)CN2C(=O)C2CC2)O1)NCc1ccncc1 | inactive | inactive |
| C[C@@H]1CN([C@@H](C)CO)C(=O)c2c(c3ccccc3n2C)-c2ccccc2CO[C@H]1CN(C)Cc1ccc(Oc2ccccc2)cc1 | inactive | inactive |
| C=CCC[C@@H](Cc1ccc(F)cc1)C(=O)OC[C@@H](Cc1ccccc1)NC(=O)[C@H](CC=C)CC(=O)N[C@@H](CO)Cc1ccccc1 | inactive | inactive |
| C[C@@H]1CCCCO[C@H](CN(C)S(=O)(=O)c2ccc(Cl)cc2)[C@@H](C)CN([C@@H](C)CO)C(=O)c2cc(NC(=O)NC3CCCCC3)ccc2O1 | inactive | inactive |
| C[C@@H]1CN([C@H](C)CO)C(=O)c2cc(NS(=O)(=O)c3cn(C)cn3)ccc2O[C@@H](C)CCCCO[C@H]1CN(C)S(=O)(=O)c1cn(C)cn1 | inactive | inactive |
| CC(=O)n1cc([C@@H]2C=C(C(=O)NCc3ccccc3)O[C@H](OCc3ccc(CO)cc3)C2)c2ccccc21 | inactive | inactive |
| O=C(C[C@H]1CC[C@H]2[C@@H](COC[C@@H](O)CN2S(=O)(=O)c2ccccc2)O1)NCc1ccc2c(c1)OCO2 | inactive | inactive |
| CN(C)CCCNC(=O)C[C@@H]1CC[C@@H]2[C@H](COc3ccc(NC(=O)c4ccc5c(c4)OCO5)cc3C(=O)N2C)O1 | inactive | inactive |
| Nc1cc2[nH]cnc2c(O)n1 | inactive | inactive |
| CCOc1ccccc1C(N)=O | inactive | inactive |
| C[C@@H]1CN([C@H](C)CO)C(=O)c2cc(C#CC(C)(C)O)cnc2O[C@H]1CN(C)Cc1cccc(C(=O)O)c1 | inactive | inactive |
| COc1ccc(NC(=O)Nc2ccc3c(c2)C(=O)N([C@@H](C)CO)C[C@@H](C)[C@@H](CN(C)S(=O)(=O)c2ccc(C)cc2)OCCCC[C@H](C)O3)cc1 | inactive | inactive |
| O=C(C1CCC1)N1CCOCC1 | inactive | inactive |
| C[C@H](CO)N1C[C@H](C)[C@H](CN(C)Cc2ccc(F)cc2)Oc2cc(C#CC3CC3)ccc2S1(=O)=O | inactive | inactive |
| C[C@@H]1CN([C@@H](C)CO)C(=O)Cc2cc(NC(=O)Nc3ccccc3)ccc2O[C@H]1CN(C)Cc1ccc(Oc2ccccc2)cc1 | inactive | inactive |
| CN1C(=O)c2cc(NC(=O)C3CCOCC3)ccc2OC[C@@H]2O[C@@H](CC(=O)NCc3ccc4c(c3)OCO4)CC[C@H]21 | inactive | inactive |
| O=C(C[C@H]1C[C@H]2c3cc(NS(=O)(=O)c4ccc(F)cc4)ccc3O[C@H]2[C@H](CO)O1)NCc1ccccc1 | inactive | inactive |
| COc1ccc(S(=O)(=O)N(C)C[C@H]2Oc3ccc(NS(=O)(=O)c4cn(C)cn4)cc3CC(=O)N([C@H](C)CO)C[C@H]2C)cc1 | inactive | inactive |
